# Reference: the supplement of paper PMC11417369
# ± gives the standard deviation of the averaged measurements. This is one part of the list.
# Test system: PfAP2-LT AP2 domain (GST-tagged)
# Assay: gcPBM binding intensity (ln(normalized median fluorescence intensity)); higher = stronger DNA binding
# Method in brief: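 An Agilent 4 × 180k array carrying primer-extended double-stranded 36-bp intergenic genomic probes and negative controls received GST-tagged P. falciparum DNA-binding domains expressed in E. coli, about 25 μg on average, for 1 h. The binding buffer contained 1× PBS, 1% milk, 0.2 mg/ml BSA, 0.5% salmon testes DNA and 0.03% Triton X-100. Binding intensity is the top Masliner-normalised natural-log median intensity across replicate spots of either probe orientation, read after Alexa488 anti-GST antibody staining and a 488 nm scan.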
row,Sequence,gcPBM binding intensity (ln)
1,TTATATGTATATATAGTGCAGAACAAAAGATTATAT [GTGCAC_site9599],8.82 ± 0.39
2,TTTTTGTTTCATAAATGTACAAAAACAAACATATTT [XGTACX_site5281],8.34 ± 0.35
3,TTGAAGAAAAAAAAATGTACATAAAAAATATATATG [XGTACX_site428],8.72 ± 0.48
4,CTTATAAATAAAAGAAGTACATGTTAGTTCAAGTTA [XGTACX_site4183],8.58 ± 0.41
5,TATATATATATATGTAGTACCTATAATATTAAATAC [XGTACX_site6118],9.255 ± 0.021
6,TTATTATCATCAAATCAAAAAATTCTTTTACCTGTT [CACACA_negctrl_site1348],8.4 ± 0.62
7,AAGAAAAGAAACAAAAAAAAAAAGAAATAAAAGGAA [TGCATGCA_negctrl_site171],8.61 ± 0.62
8,AATTTTTTTTTTTTTTTTTTTTATATATGTGTGTGT [XGTACX_negctrl_site129],9.32 ± 0.42
9,ATCAATAAATAAAATGTGCACATAATATATTAATAC,9.03 ± 0.43
10,TATGAATGGTTAAGTACACACATATTAATATAGGTA [CACACA_site7606],9.02 ± 0.43
11,TATAAAAAATATATATATAATATTATATATATATAT [TGCATGCA_negctrl_site260],8.79 ± 0.4
12,ATTTTTTTTTTTTTTTGTACGAATAATATGTATGAA [XGTACX_site5318],8.55 ± 0.45
13,AAAGGAGGGAATTTTTCTAGGTGTGGAGTGCTACTC [XGTACX_negctrl_site63],8.9 ± 0.26
14,ATTATTGTTTATTGATTTTTGTTAAAATAGGAAATT [GTGCAC_negctrl_site181],8.38 ± 0.39
15,TTTCATCTCGTCATTTCTTATATAACTATTTTATAC [CACACA_negctrl_site813],8.86 ± 0.5
16,ATTATATTTATTAATATGTATATTTAATTATATTTA [XGTACX_negctrl_site376],8.47 ± 0.42
17,AAGTGTAAAAGTTACACACACAAACTTGTCATTTTT [CACACA_site4614],9.28 ± 0.33
18,CAAATTTTTTATTAAACACACAAACATATATATATA [CACACA_site5122],8.9 ± 0.36
19,TTCTTTATTATATGCACACGTACATAAAATATATAT [CACACA_site5157],8.94 ± 0.34

row,Sequence,gcPBM binding intensity (ln)
1,TTTATTTTTCCATATGCACACACACCGTATATATAA [CACACA_site8293],9.54 ± 0.31
2,AAAATATAAATATATTTGAACATGGATCAAATGTAA [GTGCAC_negctrl_site626],8.64 ± 0.42
3,TATTCATTCTATAAAACACACAAATATTTTTGTATC [CACACA_site666],8.7 ± 0.45
4,ATACATACATACATACGTACATATGTATATATATAT [XGTACX_site8498],9.23 ± 0.14
5,ATGTTCTATAAATATGAACACACGACATATTATTTA [CACACA_site1799],8.73 ± 0.35
6,TATATTTAATTACATGAACACACATTATATATTTTT [CACACA_site8969],8.71 ± 0.47
7,TGTAGTATCAATTTTTGTACATAACACATATGTATA [XGTACX_site613],8.77 ± 0.43
8,ATATATATATATATATGTACATATTATTCTCATTGT [XGTACX_site6259],9.74 ± 0.014
9,ATATATATATATAAAGTGCAAAAATGAAAGTAAGAC [GTGCAC_site9850],9.44 ± 0.38
10,ATAAAATATAAAAACGCACACAATTATAAGGGTGTA [CACACA_site177],9.26 ± 0.38
11,AAATTAAAATATAATACACACATAAAAAAAAAATCA [CACACA_site5918],8.96 ± 0.41
12,GTATATGAATGTTCATGTACATAATAAAATATATAA [XGTACX_site250],8.8 ± 0.4
13,CAATTAAACAATTAAACATGCAAAATGATATAATAA [TGCATGCA_site240],8.87 ± 0.49
14,AAACAATTTAGACATACACACAAAAATAATATTATA [CACACA_site384],9.12 ± 0.46
15,CACGAAAATTTGTAGAGTACATATATAATTAATATA [XGTACX_site3808],8.65 ± 0.54
16,ATTAAAAAAAAGCTCATCGAAATGTCTTATATAAAT [CACACA_negctrl_site912],8.69 ± 0.47
17,ATATATATATATATATGTACATATTGTATTATTCAC [XGTACX_site6511],9.705 ± 0.021
18,GAGCATTACACATATACACACATATATATAAACATA [CACACA_site5515],9.26 ± 0.47
19,TATAATAATATTTATTGTACGATTAGATTAATTCAT [XGTACX_site612],8.53 ± 0.36

row,Sequence,gcPBM binding intensity (ln)
1,CATATGATATTATTTTGTACTTATTACAAATATGAA [XGTACX_site7929],8.46 ± 0.4
2,ATATATATATATATTTGTACATAATATATATATGCA [XGTACX_site1795],9.08 ± 0.2
3,AAAAAAAAATAGAAATGTACAAATTGTAATAATTCC [XGTACX_site6182],8.86 ± 0.54
4,AAAGAAAATTAAAAAGAACACACAAATATATATATA [CACACA_site9196],9.15 ± 0.44
5,AATGAATCCTTATATACACACATTATTATAGTATAG [CACACA_site7454],8.93 ± 0.35
6,ATTTATATATATTTATGTACGTATTAATTTTTTTTT [XGTACX_site3877],8.93 ± 0.44
7,TCTTTATCCTTTCTCTTTTTATTAATTATAATATTC [TGCATGCA_negctrl_site584],8.74 ± 0.4
8,ATTATTTGTAATATAACACACACAAAAAAAGACTCG [CACACA_site8487],9.28 ± 0.32
9,ATTAATTATGTATTTCAACAAAGAAGTGTTATATAT [GTGCAC_negctrl_site215],8.55 ± 0.42
10,ATTATACCGTATTTTGCATGTAGTATTTTCATTTTA [TGCATGCA_site1021],9.07 ± 0.41
11,AAATGTACAGGACGCACACACATATATATATATATA [CACACA_site3674],10.11 ± 0.05
12,AAGGAAAATATTAACTGTACATATAAAATATATATA [XGTACX_site5310],8.64 ± 0.47
13,ATATATACCTAAGACACACACATATATATATATATA [CACACA_site764],10.06 ± 0.05
14,TATCATTTATATATGTGTACTTATTTATTTATTTAT [XGTACX_site7961],8.94 ± 0.47
15,AAATGAATTTAACAATGTACACATATATTATAAATA [XGTACX_site1449],8.71 ± 0.44
16,TAAGTCAAAACTTTTTTTTCTAAATTTCCATAATTA [GTGCAC_negctrl_site29],8.03 ± 0.55
17,ATATACATTCTATATACATGCATACTTCATTTTGTG [TGCATGCA_site966],9.12 ± 0.49
18,ATATATATATGTATATGTACTCATTCTTCTGTGTTT [XGTACX_site5014],9.28 ± 0.26
